Assay results from the supplement of paper PMC11417369.
Some of the results follow.

tested on: PF3D7_0420300 AP2 domain 1 (GST-tagged); test: gcPBM binding intensity (ln(normalized median fluorescence intensity)); higher = stronger DNA binding
In short: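 Using an Agilent 4 × 180k array, primer-extended double-stranded 36-bp intergenic genomic probes and negative controls were exposed for 1 h to GST-fused P. falciparum DNA-binding domains expressed in E. coli. Binding was carried out in 1× PBS with 1% milk, 0.2 mg/ml BSA, 0.5% salmon testes DNA and 0.03% Triton X-100, and protein was detected with Alexa488 anti-GST antibody and a 488 nm scan. Binding intensity is the highest Masliner-normalised natural-log median intensity across replicate spots of either probe orientation.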

Sequence | gcPBM binding intensity (ln)
CCTCCATTAGATACTTGTACATAAAAGTTTTGATTG [XGTACX_site7428] | 9.14
AATCATAAAATCATATGTACACATTTTTCCTATGAT [XGTACX_site8799] | 9.36
AGACTTTGTACAAACACACACATGAACACAATATTA [CACACA_site1360] | 9.85
ATTTTATTAATTTGGTGTACTTAATTTATATTTTTC [XGTACX_site4947] | 9.41
AAAAAAAAAAAATAATAAATAAATAAAAATAAATGA [CACACA_negctrl_site1623] | 9.29
ATATTTAAAAAAGAGTGTACTCATCTCTTTTAAAAA [XGTACX_site1160] | 8.89
GTGTATTTATGTTATACACACAAAAATATTTTGTAT [CACACA_site4305] | 9.5
AATGTAGGTTTATTTACACACAAATATAGATATATA [CACACA_site6825] | 9.56
ATGTTGCTCATATGAGTGCACGTTTCATTTCAGTTT [GTGCAC_site9865] | 9.49
CTATTTCGTATATATAGTACATATTATAACATACTA [XGTACX_site978] | 9.35
AATTTATATAATTTTGTGCACAATATTCATGTATAT | 9.37
ACAAAATAAAAACACACACACAAACACAAAAAAATA [CACACA_site3390] | 10.3
AGCTCTTGTCATTTTGCACACACACCGGTATAGGTT [CACACA_site5654] | 10.1
TATATATACAGACACATACACACAAATAAAAAAACA [CACACA_site3413] | 10.1
AGAAGGTAAAAACACACACACACATACAAAAAAAAA [CACACA_site3767] | 10.1
TATACATACTCACCCACACACAAAAAAAAAAAAAAA [CACACA_site862] | 9.34
TATTTAATGTGATACTTATATTATTTTATGATTAAA [GTGCAC_negctrl_site25] | 9.06
TATATAAGAATTTTTACACACATGAAAATGTAGATA [CACACA_site3735] | 9.33
ATATGTGTGTAGTGTTCAATTATATTGATGTGAAGG [TGCATGCA_negctrl_site462] | 9.64
GAACCGTGCAAATGTTGTACACTTTAAAAATATTCT [XGTACX_site4488] | 9.21
ATAATATATATATTAACACACATCCTTTTATGTATA [CACACA_site1203] | 9.54
TTATAATAATTTTATGCACACAGAAAAATACAAGGT [CACACA_site9169] | 9.61
TAGGAGCCTAGACACACACACAAAAAAAAAAAAAAA [CACACA_site6911] | 9.39

Sequence | gcPBM binding intensity (ln)
TACATATAGAAACACACACACATATATATATATATA [CACACA_site1300] | 9.72
AAAACGAAAATTTGGAAACCAAAGGAAAAACATAAT [GTGCAC_negctrl_site709] | 9.62
AAAAAGGTTATTGGTACACACATATGTATATATATA [CACACA_site552] | 9.54
ACATATTAAAATATATGTACATAAAATATGAAAAAA [XGTACX_site5869] | 9.48
ATATTTATTCCTTTTGGTACACAAAAAAAAAAAAAA [XGTACX_site8126] | 8.8
TATATGCTATAATATACACACATACCTATATTTATA [CACACA_site6383] | 9.6
AATTTAAGCAGAACATATATATATATATATATAAAG [CACACA_negctrl_site769] | 9.19
AATTATTTCTTTTACACATGCAATATTTAATTAAAA [TGCATGCA_site598] | 9.05
TTTAAATGCTTTTTGTGGTGACTTATCCTTTCATAA [XGTACX_negctrl_site109] | 9.17
GTTAGGATAGATTAGACATGCACATAAATGCACTTC [TGCATGCA_site561] | 9.09
TTTTTATAGAATTTAACACACATTTCATATAAAAAA [CACACA_site7453] | 8.89
TTAAAATTCAAAAAAAAAAATCAGAATATCAGAAAA [CACACA_negctrl_site1361] | 9.08
TATATAACATAATATACACACATTATATGCGTAATT [CACACA_site6098] | 9.45
ATTAAAGAAATATATACACACATTATGGGGGAATAA [CACACA_site178] | 9.83
GATATATAAATAAATACACACATAAAATAGAAATAT [CACACA_site6881] | 9.93
TAATAATAAACAACCACACACAAAAAAACAAAAAAA [CACACA_site3269] | 9.98
ATTTAATTATGTAAGTGTACTTTGGAATATAATATT [XGTACX_site3186] | 9.28
GTAGCACATATATATTGTACATAATATATACATTAT [XGTACX_site6354] | 9.31
TTTATTTTATAATTCACACATATATACCTATTTTAT [CACACA_site5709] | 9.3
GTGTGGTGCTCGAGGAGTACAAACAATATGTAATTT [XGTACX_site4160] | 9.09
TAAACAGACATATAAACACACATATAAACAGACATA [CACACA_site7214] | 9.91
AATATAAGTAATTATACACACTTAATATTTATATAC [CACACA_site7334] | 9.44
TTTTCTTCCTATTATTGTACATATAGTATTCTTTCA [XGTACX_site4428] | 9.47

Sequence | gcPBM binding intensity (ln)
TTATTTGATTACTTGCGTACTTATTTCATATTTTTT [XGTACX_site6648] | 9.59
GGGATATTTTAAAGGGTGCATATTATTAAAATAATG | 9.17
ATGAGAAAACATAAAAGTACAAAAAGAAAAAAAAAA [XGTACX_site6020] | 9.35
TATTATATTAATGATGGTACAGTGTATATATATAAT [XGTACX_site1286] | 9.42
TTGGGTCAAACATAAACACACACAAAAAGAAAAAAT [CACACA_site8328] | 10
ACATATAATATAAAGTGTACAAGAAAATAAAAATAA [XGTACX_site1273] | 9.53
TTTCCATATTTTTAAAGTACATATTTCCGTTTCCAC [XGTACX_site7832] | 9.25
CAATTTTTATGTGTGTGTACTCATTTGTTTTATAAA [XGTACX_site406] | 9.81
ATACAACAGATATATACACACATATAACAATAATAA [CACACA_site7560] | 9.93
TTGGAATAATATAAATAAATAAATATATATATATAT [CACACA_negctrl_site900] | 9.05
AAAAAAAAAAAATGTGCACACGCGTACACCCAAAAA [CACACA_site8614] | 9.51
TTTCTTTTTGTTCGTGTACACACATGAAATTTATAA [CACACA_site8466] | 9.49
AATTATACATATATTTAACACACATTTTATAAAGTG [CACACA_site8362] | 9.34
ATATATATATATAATTGTACATGTGTGTATAATTTG [XGTACX_site2417] | 9.44
TTTTATTTTATATAACAACAAAATGGAAATATATAT [GTGCAC_negctrl_site71] | 9.19
GTCAATATTTAGATATGTACTAAGGAGTGCTATATA [XGTACX_site222] | 9.24
TAAATGAAAATAAATTAACACACAATTTTAATATTG [CACACA_site8360] | 9.3
TGCTACATAATATGTACACACATATACATATTTATA [CACACA_site6545] | 9.52
GTATGATTAAATAAAGGTACACTTATATTTATTTAT [XGTACX_site6966] | 9.22
TATCACATTTATGAGAGTACATAATTAATTCATGAT [XGTACX_site7850] | 9.04
GAATTAATTTTAAAACGTACATGGGTGTATTTACAC [XGTACX_site5939] | 9.23
TTCTTTTTTGTAATAACACACACACTAACAGAAAAA [CACACA_site8646] | 9.75
CATAATACAAATGTGATACCTGAAAATGACTTATTA [CACACA_negctrl_site994] | 9.3

Sequence | gcPBM binding intensity (ln)
GTAATAAATTAAATATGTACATATTAAAATTAAGGA [XGTACX_site2290] | 9.16
ATTGATACATCCAATACACACTACAGATAATGATGT [CACACA_site5098] | 9.45
AATTTCTTCCATTGTAGTACTCAATTTTTTTTTGTT [XGTACX_site5847] | 9.69
GTGTAATATTATATATATATATATAATATATATACA [CACACA_negctrl_site263] | 9.11
AAAAAAAAAAAAATGGTGCAACTTTGTTAAAGGAAA [GTGCAC_site9950] | 9.22
ATTTAAAAGTTGGTAGTGCATTAAAAATAACAAAAA [GTGCAC_site9835] | 9.26
ATTAAATACATTAACACACACACAAATAAATACATA [CACACA_site5583] | 10.3
TTTTATTATTTGTCTTGTACTCATTGTAAGAGTATG [XGTACX_site1538] | 9.17
TACATACATACATACACACACACATCTATATTTATA [CACACA_site6171] | 10
GACAGATTATAGCATAGTACTCATACATACATACAT [XGTACX_site1252] | 9.38
TTTCAAAAATTATTTTGTACATATAATTAATATACG [XGTACX_site512] | 8.94
ATTAGGCATATTTTCTGTACACAATAATAAAAAAAA [XGTACX_site3957] | 9.04
TTCTCAAAGTTTACGTGTACATAAATTATATAAATG [XGTACX_site2622] | 9.03
TGTAATATGAAATGTGTACACACGCACCCACAAAAA [CACACA_site8948] | 9.77
AATGAATTTAATTCTACTATTTTTTTTTTAAATATT [XGTACX_negctrl_site296] | 8.95
TTCCCTTATTTTGTATGTACACAATTTATCATGTTG [XGTACX_site2896] | 9.65
ATATATATATATGCATGTACATATATTTGTTATATC [XGTACX_site3197] | 9.24
AATAGATATATAAATACACACAAACATACCTATATA [CACACA_site7823] | 10
AAACAAAGGGAACATGTGCACTTACAAAAAAAAAGA | 9.48
TCACACCTTTTTGGTTGTACTTAAATTTCTTTTTTT [XGTACX_site6438] | 9.18
